# Source: publication PMC4336329 (PLoS ONE, 2015)
# In all, about 310,000 compounds went through this assay and about 14,000 (4.5%) showed an effect of 50% or more. Effects have a minus sign here. This is one part of the list.
# Biological target: human ether-à-go-go-related gene (hERG) potassium channel (human, UniProt Q12809)
# Assay: primary screen, population patch clamp on CHO cells stably expressing hERG
# 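Also: peak tail current of the secondary pulse compared with the same well before compound.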
# Sequence of human ether-à-go-go-related gene (hERG) potassium channel (Q12809 whole entry, looked up): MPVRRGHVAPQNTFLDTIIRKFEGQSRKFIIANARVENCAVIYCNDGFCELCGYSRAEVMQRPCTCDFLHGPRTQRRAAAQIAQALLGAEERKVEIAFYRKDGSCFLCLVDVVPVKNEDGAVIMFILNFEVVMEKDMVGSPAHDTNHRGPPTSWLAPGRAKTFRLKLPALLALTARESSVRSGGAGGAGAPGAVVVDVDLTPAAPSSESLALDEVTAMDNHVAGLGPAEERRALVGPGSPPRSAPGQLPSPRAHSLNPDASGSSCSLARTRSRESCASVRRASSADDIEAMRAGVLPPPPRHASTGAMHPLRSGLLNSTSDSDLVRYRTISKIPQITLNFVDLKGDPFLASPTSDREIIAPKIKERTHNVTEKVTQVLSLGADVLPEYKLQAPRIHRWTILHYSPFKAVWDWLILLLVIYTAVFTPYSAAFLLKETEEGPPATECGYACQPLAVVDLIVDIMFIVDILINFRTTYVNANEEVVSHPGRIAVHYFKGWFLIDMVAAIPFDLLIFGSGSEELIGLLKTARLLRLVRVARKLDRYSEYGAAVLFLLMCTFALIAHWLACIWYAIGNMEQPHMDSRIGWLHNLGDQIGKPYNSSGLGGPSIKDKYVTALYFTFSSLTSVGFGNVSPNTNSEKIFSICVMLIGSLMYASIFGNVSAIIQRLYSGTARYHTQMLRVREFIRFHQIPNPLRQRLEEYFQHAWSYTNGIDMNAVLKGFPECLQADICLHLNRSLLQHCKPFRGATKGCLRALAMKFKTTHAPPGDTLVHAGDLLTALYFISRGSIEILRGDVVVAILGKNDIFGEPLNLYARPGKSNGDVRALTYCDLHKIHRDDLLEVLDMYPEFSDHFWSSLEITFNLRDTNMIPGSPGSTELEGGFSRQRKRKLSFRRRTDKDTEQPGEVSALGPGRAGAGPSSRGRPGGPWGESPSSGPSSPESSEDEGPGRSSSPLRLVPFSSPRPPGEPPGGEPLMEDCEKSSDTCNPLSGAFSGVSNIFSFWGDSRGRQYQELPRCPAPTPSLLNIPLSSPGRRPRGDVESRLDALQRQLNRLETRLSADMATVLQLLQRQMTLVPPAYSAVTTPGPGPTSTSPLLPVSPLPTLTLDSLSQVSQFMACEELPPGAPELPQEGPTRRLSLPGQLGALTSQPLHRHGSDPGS
row,SMILES,"hERG current change (%, negative = inhibition) at 10uM [%]"
1,CC(C)(C)c1ccc(OCCn2ccccc2=O)cc1,-5.8
2,O=C(COc1ccc(F)cc1F)Nc1cccnc1,15.3
3,O=C(Cn1nc(C(=O)O)c2ccccc2c1=O)Nc1ccc2c(c1)OCO2,1.16
4,COc1ccc2c(c1)-c1nc(/N=C/c3cccc(OC)c3O)sc1CC2,10.5
5,COC(=O)c1cc(-c2ccc(F)cc2)n(-c2ccccc2)n1,-18.8
6,CC(C)c1ccc(NC(=O)COc2ccc(C3SCCS3)cc2)cc1,13.3
7,COc1cccc(C(=O)Nc2c(C(N)=O)oc3ccccc23)c1,3.4
8,COc1ccc2c(-c3ccccc3)cc(N3CCOCC3)nc2c1.O=C(O)C(=O)O,3.22
9,C=CCn1c(SCC(=O)NC2CCCCC2)nnc1C(C)NC(=O)c1cccs1 (centres unmarked),-11
10,O=C(O)c1ccc2c(c1)C(=O)N(c1cc(C(=O)O)ccc1Br)C2=O,-4.78
11,COc1ccccc1C(CC(=O)c1ccccc1)CC(=O)c1ccccc1,19.1
12,Cn1c(=S)[nH]c2ccccc21,17.2
13,COC(=O)c1sc2ncn(CC(=O)N(C)C3CCCCC3)c(=O)c2c1C,11.9
14,CS(=O)(=O)N(Cc1cc2ccccc2[nH]c1=O)C1CCCCC1,-3.02
15,Cc1c(NC(=O)COC(=O)Cc2ccc(Br)cc2)c(=O)n(-c2ccccc2)n1C,5.33
16,CCOc1ncccc1C(=O)OCC(=O)Nc1cc(S(=O)(=O)N2CCOCC2)ccc1C,-8.24
17,O=C(CSc1ccc(Br)cc1)N1CCOCC1,15.5
18,COC1Cc2ccccc2N(C(N)=O)c2ccccc21 (centres unmarked),7.85
19,Clc1ccc2c(c1)C=Nc1c(NCc3ccccc3)ncnc1O2,4.71

row,SMILES,"hERG current change (%, negative = inhibition) at 10uM [%]"
1,COc1ccc(S(=O)(=O)N2CCOCC2)cc1NC(=O)c1ccc(-n2nc(C)cc2C)cc1,-2.12
2,Cc1ccc(N(CC(=O)NC(C)c2ccccc2)S(=O)(=O)c2c(C)noc2C)cc1 (centres unmarked),15.1
3,COc1ccc(C2C3=C(CC(C)(C)CC3=O)Nc3c2c(=O)[nH]c2nc(C)nn32)cc1 (centres unmarked),6.49
4,COC(=O)c1sc(NC(=S)NC(=O)c2cc(OC)c(OC)c(OC)c2)nc1C,1.18
5,CCOC(=O)N1CCN(C(=O)C2CCN(S(=O)(=O)c3c(C)cc(C)cc3C)CC2)CC1,-22.9
6,O=C(Nc1nnc(S(=O)(=O)N2CCCC2)s1)c1ccccc1Br,4.16
7,Cc1ncc([N+](=O)[O-])n1CC(=O)Nc1ccccc1F,3.16
8,CC(CC(=O)Nc1nnc(CC(C)(C)C)s1)c1ccccc1 (centres unmarked),23.6
9,COc1cccc(C(=O)N2CCN=C2SCc2cccnc2)c1OC,4.44
10,O=C(COc1cc(O)c2c(=O)cc(-c3ccccc3)oc2c1)c1cccc([N+](=O)[O-])c1,7.62
11,CC(C)(CNC(=O)C1CCCN1C(=O)c1cccs1)N1CCOCC1 (centres unmarked),19.5
12,CN1CCc2c(sc(NC(=O)CS(=O)(=O)c3ccc(F)cc3)c2C(N)=O)C1.Cl,-58.8
13,CSCCC(NC(=O)c1ccccc1Br)C(=O)NCC1CCCCC1 (centres unmarked),9.7
14,O=c1ccn(CCc2c[nH]c3ccccc23)c2c1CCCC2,-11.5
15,CCC(C(=O)NC(C)c1ccccc1)C(=O)NC(C)c1ccccc1 (centres unmarked),17
16,CCCc1ncc(C(O)c2cccc3ccccc23)n1C (centres unmarked),-22.6
17,CSc1nc2nc(-c3ccc(F)cc3)c(CCN3CCN(C)CC3)cn2n1,-2.66
18,O=[N+]([O-])c1ccc(/C=N/n2c(C3CCCCC3)n[nH]c2=S)cc1,18.6
19,O=C(Cc1ccc(Cl)cc1)OCc1nnc(-c2ccccc2)o1,11.2

row,SMILES,"hERG current change (%, negative = inhibition) at 10uM [%]"
1,O=C(NNS(=O)(=O)c1ccc(F)cc1)C1CCN(S(=O)(=O)c2ccccc2)CC1,-2.74
2,O=C1N=C(N2CCOCC2)S/C1=C\c1cccs1,3.81
3,COC(=O)c1ccc(NC(=O)C(=O)N2CCN(C(=S)Nc3ccccc3OC)CC2)cc1,-13.4
4,COc1cccc(NC(=O)N2CCN(c3ccc(C(F)(F)F)cn3)CC2)c1,-3.19
5,COC(=O)c1ccc(Cl)c(NC(=O)CN(c2ccc(OC)cc2)S(=O)(=O)c2ccccc2)c1,3.49
6,Cc1cc(-c2nn(-c3ccccc3F)cc2CNCCc2cnc[nH]2)c(C)s1,-53.6
7,Cc1cc2oc(=O)cc(CN3CCCCC3C)c2cc1Cl (centres unmarked),-0.834
8,O=C(N/N=C/c1cccc([N+](=O)[O-])c1)c1cccs1,-16.5
9,CCOc1ccc(NC(=O)CSc2nc3cccnc3n2CCOC)cc1,-20.4
10,COCCNC(=O)c1ccccc1N(Cc1ccccc1)S(=O)(=O)c1ccccc1,6.15
11,O=C(N/N=C\c1c[nH]c2ccccc12)c1ccc(O)cc1,18.1
12,O=C(Nc1ccc(Cl)c(Cl)c1)c1ccccc1,-13.3
13,Cc1ccc(C)c(S(=O)(=O)N2CCN(C(=O)Cn3c(=O)cnc4ccccc43)CC2)c1,-10
14,CN1/C(=C\C(=O)CSc2cccc[n+]2[O-])C(C)(C)c2ccccc21,26.3
15,Cc1sc2ncnc(Sc3ccccc3C(=O)Nc3ccc(C#N)cc3)c2c1C,-35.6
16,CC(=O)Nc1ccc(S(=O)(=O)N2CCCN(S(=O)(=O)c3ccc(NC(C)=O)cc3)CC2)cc1,-0.406
17,COc1ccc(-n2nc(N)c(C(N)=O)n2)cc1,16.8
18,Cc1cccc(OCC(=O)Nc2cc(NC(=O)COc3cccc(C)c3C)cc(C(=O)O)c2)c1C,23.6
